Earlier results on 19 sequences are cited in publication PMC11006913.

Some targets named below: ARX (Homo sapiens) (UniProt Q96QS3); ARX L343Q (Homo sapiens) (UniProt Q96QS3); ARX P353L (Homo sapiens) (UniProt Q96QS3); ARX P353R (Homo sapiens) (UniProt Q96QS3); ARX R332H (Homo sapiens) (UniProt Q96QS3); ARX T333N (Homo sapiens) (UniProt Q96QS3); ISX (Homo sapiens) (UniProt Q2M1V0); ISX R83Q (Homo sapiens) (UniProt Q2M1V0).
Common to all, as to conditions: PBM; conditions not shown; double strand, one strand shown; scale: upbm affinity estimate (log intensity, higher = more binding, comparable within an allelic series)
The target of data set [1] is T1, HESX1 E149K (Homo sapiens) (UniProt Q9UBX0).
T1 sequence: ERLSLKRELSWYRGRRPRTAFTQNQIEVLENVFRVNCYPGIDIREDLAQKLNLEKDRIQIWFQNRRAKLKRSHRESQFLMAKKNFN

In data set [2] the target is T2, HESX1 N125S (Homo sapiens) (UniProt Q9UBX0).
T2 sequence: T1 sequence with N31S, K55E

Data set [3] deals with T3, HESX1 R160C (Homo sapiens) (UniProt Q9UBX0).
T3 sequence: T1 sequence with K55E, R66C

Data set [4] has as its target HOXD13 I297V (Homo sapiens) (UniProt P35453).
Data set [5] addresses HOXD13 I322L (Homo sapiens) (UniProt P35453).
In data set [6] the target is HOXD13 N298S (Homo sapiens) (UniProt P35453).
Data set [7] deals with HOXD13 Q325K (Homo sapiens) (UniProt P35453).
Data set [8] deals with HOXD13 Q325R (Homo sapiens) (UniProt P35453).
Data set [9] addresses HOXD13 R306W (Homo sapiens) (UniProt P35453).
Data set [10] concerns the target HOXD13 S316C (Homo sapiens) (UniProt P35453).
For data set [11], the target named is PROP1 R112Q (Homo sapiens) (UniProt O75360).
Data set [12] addresses PROP1 R99Q (Homo sapiens) (UniProt O75360).

Positions count from the first letter of the chain named. The list shows a part of the results.

With CGCGCTCC [8-mer CGCGCTCC], the binding signal is 10.2 in the data set with ARX (Homo sapiens); 10.2 in the data set with ARX L343Q (Homo sapiens); 10.1 with ARX P353L (Homo sapiens); 10.1 with ARX P353R (Homo sapiens); 10.2 with ARX R332H (Homo sapiens); 10.2 with ARX T333N (Homo sapiens).

Turning to CACCGCCG [8-mer CACCGCCG], the binding signal is 10.2 with ARX (Homo sapiens); 10.2 with ARX L343Q (Homo sapiens); 10.2 with ARX P353L (Homo sapiens); 10.1 with ARX P353R (Homo sapiens); 10.1 with ARX R332H (Homo sapiens); 10.2 in the data set with ARX T333N (Homo sapiens).

Turning to CCGCCCCG [8-mer CCGCCCCG], the binding signal was 9.96 with ARX (Homo sapiens); 10.1 with ARX L343Q (Homo sapiens); 9.94 with ARX P353L (Homo sapiens); 10 in the data set with ARX P353R (Homo sapiens); 10.2 with ARX R332H (Homo sapiens); 10.3 with ARX T333N (Homo sapiens).

Consider GGCTCCCC [8-mer GGCTCCCC], for which the binding signal in the data set with ARX (Homo sapiens) was 10.1; in the data set with ARX L343Q (Homo sapiens), 10; in the data set with ARX P353L (Homo sapiens) it was 10.1; with ARX P353R (Homo sapiens) it was 10; in the data set with ARX R332H (Homo sapiens), 10; with ARX T333N (Homo sapiens), 10.1.

Take CAAGCTTG [8-mer CAAGCTTG]: the binding signal with ARX (Homo sapiens) was 10.2; with ARX L343Q (Homo sapiens), 10.2; with ARX P353L (Homo sapiens), 10.2; in the data set with ARX P353R (Homo sapiens) it was 10.3; with ARX R332H (Homo sapiens), 10.3; in the data set with ARX T333N (Homo sapiens) it was 10.3.

Regarding GGCCACCC [8-mer GGCCACCC], the binding signal in the data set with ARX (Homo sapiens) is 10.1; with ARX L343Q (Homo sapiens) it was 10; in the data set with ARX P353L (Homo sapiens), 10.2; with ARX P353R (Homo sapiens), 9.99; with ARX R332H (Homo sapiens), 10.1; with ARX T333N (Homo sapiens), 10.2.

ATCGATTA [8-mer ATCGATTA]: the binding signal with ARX (Homo sapiens) is 12.2; with ARX L343Q (Homo sapiens), 11; in the data set with ARX P353L (Homo sapiens), 12.3; with ARX P353R (Homo sapiens), 10.9; with ARX R332H (Homo sapiens), 11.1; with ARX T333N (Homo sapiens) it was 11.5.

As for GGCCGTGA [8-mer GGCCGTGA], the binding signal with ARX (Homo sapiens) is 10.3; with ARX L343Q (Homo sapiens), 10.3; in the data set with ARX P353L (Homo sapiens), 10.2; with ARX P353R (Homo sapiens), 10.2; in the data set with ARX R332H (Homo sapiens), 10.3; with ARX T333N (Homo sapiens) it was 10.4.

CTGGCCCA [8-mer CTGGCCCA]: the binding signal in the data set with ARX (Homo sapiens) was 10.1; in the data set with ARX L343Q (Homo sapiens), 10.2; in the data set with ARX P353L (Homo sapiens) it was 10.2; with ARX P353R (Homo sapiens) it was 10.1; with ARX R332H (Homo sapiens), 10.1; with ARX T333N (Homo sapiens), 10.2.

For the sequence GCCACGGC [8-mer GCCACGGC], the binding signal was 10.1 in the data set with ARX (Homo sapiens); 10.1 with ARX L343Q (Homo sapiens); 10.1 with ARX P353L (Homo sapiens); 10.1 in the data set with ARX P353R (Homo sapiens); 10.2 with ARX R332H (Homo sapiens); 10.3 in the data set with ARX T333N (Homo sapiens).

For CGCCGGAC [8-mer CGCCGGAC], the binding signal with ARX (Homo sapiens) was 10.2; with ARX L343Q (Homo sapiens) it was 10.1; with ARX P353L (Homo sapiens), 10.2; with ARX P353R (Homo sapiens), 10; with ARX R332H (Homo sapiens), 10; with ARX T333N (Homo sapiens) it was 10.2.

As for AGCGCCGC [8-mer AGCGCCGC], the binding signal is 10.2 with ARX (Homo sapiens); 10.2 with ARX L343Q (Homo sapiens); 10.3 with ARX P353L (Homo sapiens); 10.1 in the data set with ARX P353R (Homo sapiens); 10.1 in the data set with ARX R332H (Homo sapiens); 10.3 with ARX T333N (Homo sapiens).

Consider GAGCCGGC [8-mer GAGCCGGC], for which the binding signal was 10 with ARX (Homo sapiens); 9.98 with ARX L343Q (Homo sapiens); 9.99 in the data set with ARX P353L (Homo sapiens); 9.88 with ARX P353R (Homo sapiens); 9.96 with ARX R332H (Homo sapiens); 10.1 with ARX T333N (Homo sapiens).

As to GCGCGAGC [8-mer GCGCGAGC], the binding signal was 10.1 in the data set with ARX (Homo sapiens); 10.1 with ARX L343Q (Homo sapiens); 10.2 with ARX P353L (Homo sapiens); 10.1 in the data set with ARX P353R (Homo sapiens); 10.2 in the data set with ARX R332H (Homo sapiens); 10.2 with ARX T333N (Homo sapiens).

With GCGGCGGA [8-mer GCGGCGGA], the binding signal in the data set with ARX (Homo sapiens) was 10.3; with ARX L343Q (Homo sapiens), 10; with ARX P353L (Homo sapiens), 10.2; with ARX P353R (Homo sapiens) it was 10.1; with ARX R332H (Homo sapiens), 10; with ARX T333N (Homo sapiens), 10.2.

Take GCGCGCGC [8-mer GCGCGCGC]: the binding signal with ARX (Homo sapiens) is 10.4; in the data set with ARX L343Q (Homo sapiens), 10.4; in the data set with ARX P353L (Homo sapiens), 10.2; with ARX P353R (Homo sapiens), 10.2; in the data set with ARX R332H (Homo sapiens), 10.3; with ARX T333N (Homo sapiens), 10.4.

As for CGCCACGC [8-mer CGCCACGC], the binding signal in the data set with ARX (Homo sapiens) was 10; in the data set with ARX L343Q (Homo sapiens) it was 10; in the data set with ARX P353L (Homo sapiens), 10; in the data set with ARX P353R (Homo sapiens), 9.98; with ARX R332H (Homo sapiens), 10.1; in the data set with ARX T333N (Homo sapiens), 10.1.

For CAATTATG [8-mer CAATTATG], the binding signal with ARX (Homo sapiens) was 12.8; in the data set with ARX L343Q (Homo sapiens), 11; with ARX P353L (Homo sapiens), 12.5; with ARX P353R (Homo sapiens), 10.9; with ARX R332H (Homo sapiens), 11.1; with ARX T333N (Homo sapiens) it was 12. In addition, the binding signal in data set [1] was 11.8; in [2], 12.1; in data set [3] it was 10.5; in data set [4] it was 11.7; in [5], 10.9; in data set [6] it was 11.8. Further, the binding signal in data set [7] was 10.8; in data set [8], 11.2; in data set [9] it was 10.9; in data set [10] it was 11.4; in the data set with ISX (Homo sapiens), 15.1; with ISX R83Q (Homo sapiens), 13.8. The values for the binding signal in [11] and in data set [12] were 12.8 and 12.4, respectively.

Turning to CCCCCAGC [8-mer CCCCCAGC], the binding signal with ARX (Homo sapiens) was 9.92; with ARX L343Q (Homo sapiens) it was 9.85; with ARX P353L (Homo sapiens) it was 9.93; in the data set with ARX P353R (Homo sapiens) it was 9.77; with ARX R332H (Homo sapiens), 9.82; with ARX T333N (Homo sapiens) it was 9.99.
